In PubChem BioAssay AID504648 (National Center for Advancing Translational Sciences (NCATS), 2011):
The whole screen tested about 390,000 compounds, of which about 610 (0.16%) were called active. Roughly 4% stayed inconclusive and do not appear here. Calls follow the shape of the dose curve; as a rule, active = well fitted inhibition curve with a large enough effect; inconclusive = small, poorly fitted or top-dose-only effect, or effect the other way, or another doubt; inactive = no such curve, though single readings can be large or run the other way. Only a part is listed here, and it is no random draw.

Assay: Nrf2 qHTS screen for inhibitors: counterscreen for cytotoxicity
Settings: A549 ARE-Fluc cells, CellTiter-Fluor viability, 18-24 h; series mostly up to 46 µM; activity change, negative = cytotoxicity: at the top concentration
Source text: NIH Molecular Libraries Probe Production Network [MLPCN]
NIH Chemical Genomics Center [NCGC]
Assay Provider: Shyam Biswal, Johns Hopkins University
Nrf2 is a transcription factor that maintains cellular redox homoestasis and protects cells from xenobiotics. Nrf2 binds to the antioxidant response element (ARE) to induce gene expression of a broad spectrum of genes that encode for antioxidants. […] Finding a small molecule that act as an inhibitor of Nrf2 function would represent a novel therapeutic target that could lead to improvement in survival of patients undergoing chemo- and/or radio- therapy.
So here we implemented a counterscreen to weed out the cytotoxic compounds.
1. Shibata, T., et al., Genetic Alteration of Keap1 Confers Constitutive Nrf2 Activation and Resistance to Chemotherapy in Gallbladder Cancer. Gastroenterology, 2008.
2. Sjoblom, T., et al., The consensus coding sequences of human breast and colorectal cancers. Science, 2006. 314(5797): p. 268-74.
NCGC Assay Protocol Summary:
A concentration-response assay was performed with A549 ARE_Fluc cells which are suspended in 5% FBS OPTI-MEM. Five uL were dispensed into 1536-well white TC-treated plate using the Kalypsys dispenser to achieve a density of 5000 cells/well in all columns except column 1. The plate is incubated at 37deg C at 5% CO2 for 2 hours before 23 nL of compounds are added with the Kalypsys pin tool equipped with a 1,536-pin array containing 10-nL slotted pins (FP1S10, 0.457-mm diameter, 50.8 mm long; V&P Scientific). The control compounds Budesonide and Staurosporine are both added at a concentration of 2mM and Budesonide is also added as a 1:10 titration, starting at 200uM, to achieve dose-response. After an 18-24 hour incubation at 37deg C at 5% CO2, 5ul of medium is added to column 1. Afterwards 1ul of 5x of CellTiter-Fluor (Promega) is added to every well. The plate is then incubated at 37deg C at 5% CO2 for 30 minutes before they are read on the ViewLux (Perkin Elmer) for a fluorescent read Ex=405(10)/Em=525(10) for a 3 second exposure, 2x binning, and high gain. Then 3 uL of 3x BugLite is dispensed into all wells and the plate is incubated at ambient room temperature for 15 minutes. Afterwards another ViewLux read is performed using the clear filter to get a luminescent read with the settings of 40 second exposure, 2x binning, and high gain. Cytotoxicity is assessed through the first fluorescent read and then biochemical activity against Nrf2 is measured in the luminescent read.
% is scaled to controls: 0 for no effect and ±100 for the full control effect; potency is read from the fitted curve at half-maximal effect.

SMILES | activity change, negative = cytotoxicity | Potency
COc1cccc(-n2c(C)nc3cc(C(=O)O)ccc32)c1 | inactive: 3.98% | 
CCC(=O)NC(c1ccc(C)cc1)c1ccc2cccnc2c1O (configuration not stated) | inactive: -12.1% | 
COc1ccc(N2CCN(C(=O)c3ccc4c(=O)n(CCc5ccc(OC)c(OC)c5)c(=O)[nH]c4c3)CC2)cc1 | inactive: -7.45% | 
CN(C)CCCNc1cc(O)c2ncccc2c1 |  | active: 10.3 µM
CC1CCCN(CCCNC(=O)c2cc3c(Cl)nc4ccccc4c3s2)C1 (configuration not stated) | inactive: -3.5% | 
CCc1ccc(CNC(=O)C2CCN(c3nnc(C)c4c(C)n(-c5ccc(C)cc5)nc34)CC2)cc1 | inactive: -4.14% | 
Cc1cc(NC(=O)CSc2nc3c([nH]c4ccccc43)c(=O)n2-c2ccccc2F)no1 | inactive: -20.6% | 
CCCCc1c(C)c(C#N)c2nc3ccccc3n2c1NCCN(C)C |  | active: 6.51 µM
C[C@@H](C(=O)N1CCN(c2ccccc2)CC1)N1C(=O)C2CC=CCC2C1=O (some centres not stated) | inactive: -0.744% | 
CN1N/C(=C\c2ccccc2)N=C2C(=O)N(C)C(=O)N=C21 |  | active: 5.8 µM
Nc1ccc(NC(=O)c2cccc(C(=O)Nc3ccc(N)cc3Cl)c2)c(Cl)c1 | inactive: -10.1% | 
CN(CCCNC(=O)c1cc2c(Cl)nc3ccccc3c2s1)Cc1ccccc1 | inactive: 9.65% | 
CCCOc1ccc(C2C(C(=O)c3cc4ccccc4o3)=C(O)C(=O)N2c2cc(C)on2)cc1 (configuration not stated) |  | active: 20.6 µM
CCOc1ccccc1CNC(=O)C1CCN(c2nnc(C)c3c(C)n(-c4ccc(C)cc4)nc23)CC1 | inactive: -14.5% | 
COc1cc(C(CC(=O)N2CCCC2)c2c(OC)cc(OC)c3c(-c4ccccc4)cc(=O)oc23)cc(OC)c1OC (configuration not stated) | inactive: -6.17% | 
CN1CCN(C(=O)CCN2C(=O)/C(=C/c3ccc(F)cc3)SC2=S)CC1 | inactive: -21.3% | 
CCOCCCn1c(=NC(C)=O)c(C(=O)OCC)cc2c(=O)n3ccccc3nc21 | inactive: -3.06% | 
CCO[C@@H]1OC(C(=O)NCc2ccccc2)=C[C@H](c2ccc(C(F)(F)F)cc2)[C@H]1CCCO |  | active: 16.4 µM
Cc1nn(C(C)C(=O)NCc2ccco2)c(=O)c2nn(-c3ccccc3)c(C)c12 (configuration not stated) | inactive: -3.25% | 
CCCCN(CC)CCNC(=O)CN1C(=O)COc2ccc(S(=O)(=O)N3CCCC3)cc21 | inactive: 0.612% | 
COc1ccc(C2c3c(ncn(CCN4CCOCC4)c3=N)Oc3ccc4ccccc4c32)cc1OC (configuration not stated) | inactive: 4.98% | 

SMILES | activity change, negative = cytotoxicity | Potency
CCN(CC)CCCNC(=O)CSc1c2c(nc3cc(Cl)ccc13)CCCC2 | inactive: -3.79% | 
CCN1/C(=C/C(C)=C/c2sc3ccccc3[n+]2CC)Sc2ccccc21 |  | active: 20.6 µM
OCC1OC(n2cnc3c(NCc4ccco4)ncnc32)C(O)C1O (configuration not stated) | inactive: -12.8% | 
CC(N=C(NC#N)Nc1ccncc1)C(C)(C)C (configuration not stated) | inactive: -3.73% | 
CC(C)C[C@H]1C(=O)N2CCC[C@H]2[C@]2(O)O[C@](NC(=O)[C@@H]3C=C4c5cccc6[nH]c(Br)c(c56)CC4N(C)C3)(C(C)C)C(=O)N12 (some centres not stated) | inactive: -1.28% | 
Cc1ccc(Cn2cc(C(=O)c3ccc(F)cc3)c(=O)c3cc4c(cc32)OCCO4)cc1 | inactive: -3.41% | 
N#C/C(=C(/O)c1ccco1)c1nc2ccccc2s1 | inactive: 0.234% | 
CCOC(=O)C1=C(C)NC(C)=C(C(=O)OCC)C1C(=O)OCC(=O)N1CCCCC1CC (configuration not stated) | inactive: -7.84% | 
N#C/C(=C/C1=C(N2CCOCC2)C(=C/c2cccc([N+](=O)[O-])c2)/CC1)C(=O)Nc1ccccc1F | inactive: -19.6% | 
O=C(C[C@@H]1C/C=C\CC[C@@H](Cc2ccc(F)cc2)C(=O)OC[C@@H]2CCCN2C1=O)N[C@H](CO)Cc1ccccc1 | inactive: -18.5% | 
O=C(C[C@H]1C/C=C\CC[C@H](Cc2ccc(F)cc2)C(=O)OC[C@H]2CCCN2C1=O)N[C@H](CO)Cc1ccccc1 | inactive: -0.0111% | 
C[C@H](CO)N1C[C@H](C)[C@@H](CN(C)S(=O)(=O)c2ccccc2)Oc2c(NC(=O)Nc3ccc(C(F)(F)F)cc3)cccc2C1=O | inactive: -9.19% | 
Cc1nnc(N2CCCC(C(=O)Nc3cc(F)ccc3F)C2)c2nn(-c3ccccc3)c(C)c12 (configuration not stated) | inactive: -12.8% | 
N#Cc1nc(NCC(F)F)nc(Nc2cc(F)cc(F)c2)n1 | inactive: -8.36% | 
C=CC[C@H](CC(=O)NCCO)C(=O)N[C@@H](COC(=O)[C@@H](CC=C)Cc1ccc(F)cc1)Cc1ccccc1 | inactive: -1.27% | 
Cc1ccc2nc(N3C(=O)C(O)=C(C(=O)c4ccco4)C3c3cccs3)sc2c1 (configuration not stated) |  | active: 14.6 µM
COc1cc(NC(=O)CN2C(=O)COc3ccc(S(=O)(=O)N4CCCCC4)cc32)cc(OC)c1 | inactive: -2.39% | 
Cc1oc(-c2ccccc2F)nc1CS(=O)(=O)CC(=O)N1CCN(c2ccccc2)CC1 | inactive: 7.5% | 
CN(C)CC(C)(C)CNS(=O)(=O)c1ccc(Cl)c(Cl)c1 | inactive: 0.887% | 
C=CC[C@@H](CC(=O)NCCO)C(=O)N[C@@H](COC(=O)[C@@H](CC=C)Cc1ccc(F)cc1)Cc1ccccc1 | inactive: 4.6% | 
COc1ccc(OC)c(S(=O)(=O)Nc2ccc3c(c2)n(C)c(=O)n3C)c1 | inactive: -9.68% | 

SMILES | activity change, negative = cytotoxicity | Potency
Fc1ccc([C@@H]2CCNC[C@H]2COc2ccc3c(c2)OCO3)cc1 | inactive: -2.01% | 
O=C(CCCN1C(=O)/C(=C/c2cccs2)SC1=S)Nc1ccc(O)cc1 | inactive: -5.78% | 
Cc1cc(/C=C2\SC(=O)NC2=O)c(C)n1-c1ccc(N2CCOCC2)cc1 | inactive: -4.13% | 
O=C1/C(=C\c2ccc(Cl)c(Cl)c2)CN(C(=O)CCN2CCOCC2)C/C1=C/c1ccc(Cl)c(Cl)c1 |  | active: 20.6 µM
C=CC[C@H](CC(=O)N[C@H](CO)Cc1ccccc1)C(=O)N[C@H](COC(=O)[C@@H](CC=C)Cc1ccc(F)cc1)Cc1c[nH]c2ccccc12 | inactive: 0.09% | 
CCc1cccc2c(C(=O)COC(=O)c3ccc([N+](=O)[O-])s3)c[nH]c12 |  | active: 20.6 µM
CC(C)(C)[C@H]1COC(=O)[C@H](NC(=O)OCC2c3ccccc3-c3ccccc32)C/C=C\C[C@@H](CC(=O)N[C@@H](CO)Cc2ccccc2)C(=O)N1 | inactive: -18.8% | 
CC1CCN(CCCNC(=O)CN2C(=O)CSc3ccc(S(=O)(=O)N4CCC(C)CC4)cc32)CC1 | inactive: -0.547% | 
C=CC[C@@H](CC(=O)N[C@H](CO)Cc1ccccc1)C(=O)NC[C@@H](OC(=O)[C@@H](CC=C)Cc1ccc(F)cc1)c1ccccc1 | inactive: -1.39% | 
Cn1nc(-c2ccncc2)nc2c(=O)n(C)c(=O)nc1-2 |  | active: 2.91 µM
CN1CCc2c(sc(NC(=O)c3ccc([N+](=O)[O-])o3)c2C(N)=O)C1 |  | active: 20.6 µM
O=C(NCc1ccccc1)C1=C[C@H](C2CCCCC2)C[C@H](OCc2ccc(CO)cc2)O1 | inactive: 1.45% | 
Fc1ccc(Nc2nc3nonc3nc2Nc2cccc(C(F)(F)F)c2)cc1 |  | active: 8.2 µM
COc1cc(C(=O)O[C@H]2C/C(C)=C/CC[C@]3(C)O[C@@H]3C(O)C2C(C)C)cc(OC)c1OC (some centres not stated) | inactive: -1.63% | 
Cc1nn(Cc2ccc(Cl)cc2)c(C)c1NC(=O)c1noc2c1CCc1ccccc1-2 | inactive: 0.412% | 
O=C(CCSCc1ccccc1Cl)N1CCN(c2cccc(Cl)c2)CC1 | inactive: -0.342% | 
C/C=C(/C)C(=O)O[C@@H]1c2c(ccc3ccc(=O)oc23)OC(C)(C)[C@@H]1OC(=O)/C(C)=C\C | inactive: -11.6% | 
O=c1cc(-c2ccc(O)c(O)c2)oc2cc(O)c([C@@H]3O[C@H](CO)[C@@H](O)[C@H](O)[C@H]3O)c(O)c12 | inactive: -17.9% | 
OCCN(CCO)CC(O)COc1ccc(Br)cc1 (configuration not stated) | inactive: 2.49% | 
CC(C)Cn1cnc2c(c(-c3ccccc3)c(-c3ccccc3)n2Cc2ccco2)c1=N |  | active: 23.1 µM
C=CCC[C@H](Cc1ccc(F)cc1)C(=O)OC[C@@H](C)NC(=O)[C@@H](CC=C)CC(=O)N[C@@H](CO)Cc1ccccc1 | inactive: -1.93% | 

SMILES | activity change, negative = cytotoxicity | Potency
CC1OC(Nc2ccc(N=Nc3ccccc3)cc2)C(O)C(O)C1O (configuration not stated) | inactive: -26.5% | 
C=CC[C@@H](CC(=O)N(CCO)Cc1ccccc1)C(=O)NC[C@H](OC(=O)[C@@H](CC=C)CC(=O)OC(C)(C)C)c1ccccc1 | inactive: -19% | 
CCCCCCCCCCCCCCCC[n+]1ccccc1 | inactive: -16.3% | 
O=C(C[C@H]1C/C=C\C[C@@H](Cc2ccc(F)cc2)C(=O)O[C@@H](c2ccccc2)CNC1=O)N[C@@H](CO)Cc1ccccc1 | inactive: -13.6% | 
Cc1ccc(C)c(N2CCN(CCCNC(=O)c3cnn(-c4ccc(F)cc4)c3C3CCN(C(=O)OC(C)(C)C)CC3)CC2)c1 |  | active: 18.4 µM
CC(C)(C)OC(=O)C[C@@H]1C/C=C\C[C@@H](CC(=O)N(CCO)Cc2ccccc2)C(=O)NC[C@@H](c2ccccc2)OC1=O | inactive: -7.32% | 
COc1ccccc1NC(=O)Cc1csc(NC(=S)Nc2ccccc2)n1 |  | active: 18.4 µM
CCN(CC)C(=O)CC(c1ccc2c(c1)OCO2)c1c(OC)cc(OC)c2ccc(=O)oc12 (configuration not stated) | inactive: -11.6% | 
O=C(C1=C[C@@H](c2ccc(C(F)(F)F)cc2)C[C@@H](OCCCCO)O1)N1CCN(Cc2ccccc2)CC1 | inactive: -12% | 
O=C(C[C@H]1C/C=C\C[C@H](Cc2ccc(F)cc2)C(=O)O[C@@H](c2ccccc2)CNC1=O)N[C@@H](CO)Cc1ccccc1 | inactive: -13.5% | 
O=C(NCc1nc2ccccc2[nH]1)C1=C[C@H](C2CCCCC2)C[C@H](OCc2ccc(CO)cc2)O1 | inactive: -24.9% | 
O=C1CCN(CCc2ccccc2)CCN1[C@H](CSc1ccc(Br)cc1)Cc1ccccc1 | inactive: -12.6% | 
O=C(NCCCO)c1ccc2nc(-c3ccco3)c(-c3ccco3)nc2c1 | inactive: -19% | 
OC[C@@H](O)[C@@H](O[C@@H]1O[C@H](CO)[C@H](O)[C@H](O)[C@H]1O)[C@H](O)[C@@H](O)CO | inactive: -2.86% | 
N#Cc1nc(Nc2cccc(Cl)c2)c2ncn(C3CCCC3)c2n1 | inactive: -21.2% | 
Cc1ccc(Nc2nc(N)nc(CSc3nc4ccccc4s3)n2)cc1 | inactive: -4.26% | 
COc1ccc([C@@H]2C[C@H](c3ccccc3)Oc3cc(OC)c(OC)c(OC)c32)cc1 | inactive: 15.3% | 
CN1/C(=C/c2cccc[n+]2C)Sc2ccccc21 |  | active: 11.6 µM
COc1cc(O)c(C(CC(=O)N2CCN(c3ccccc3)CC2)c2ccc(N(C)C)cc2)c(OC)c1 (configuration not stated) | inactive: 4.65% | 
